The text below walks through data of PubChem BioAssay AID1159614 (National Center for Advancing Translational Sciences (NCATS), 2016).

In all, about 45,000 compounds went through this assay and about 65 (0.1%) were called active. The call rests on the fitted dose curve; in most records, active means well fitted activation curve with a large enough effect; inconclusive means small, poorly fitted or top-dose-only effect; inactive means no such curve, though single readings can be large or run the other way. The list shows a part of the results.

In the assay the target is Galactocerebrosidase (Homo sapiens) (UniProt P54803). The experiment in a line: A Novel Cell-Based Assay to Identify Small Molecules for B -Galactocerebrosidase. Further: 0% is about no effect; nearly all actives have a fitted effect of over 65% in size. Particulars: 145M-Twi-hGALC-G270D cells (Twitcher mouse brain line with human GALC G270D), HMU-beta-Gal fluorescence, 48 h; series mostly up to 57.5 µM; activation: at the top concentration. The method in brief: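 Brain-derived Twitcher mouse 145M-Twi cells stably expressing human GALC-G270D or wild-type GALC, treated live, then residual GALC activity read by fluorescence of HMU-b-Gal substrate (0.1 mM final) in citrate-phosphate buffer pH 5.2 with sodium taurocholate. Signal increase indicates enhancement.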
UniProt P54803, sequence (P54803 whole entry, looked up): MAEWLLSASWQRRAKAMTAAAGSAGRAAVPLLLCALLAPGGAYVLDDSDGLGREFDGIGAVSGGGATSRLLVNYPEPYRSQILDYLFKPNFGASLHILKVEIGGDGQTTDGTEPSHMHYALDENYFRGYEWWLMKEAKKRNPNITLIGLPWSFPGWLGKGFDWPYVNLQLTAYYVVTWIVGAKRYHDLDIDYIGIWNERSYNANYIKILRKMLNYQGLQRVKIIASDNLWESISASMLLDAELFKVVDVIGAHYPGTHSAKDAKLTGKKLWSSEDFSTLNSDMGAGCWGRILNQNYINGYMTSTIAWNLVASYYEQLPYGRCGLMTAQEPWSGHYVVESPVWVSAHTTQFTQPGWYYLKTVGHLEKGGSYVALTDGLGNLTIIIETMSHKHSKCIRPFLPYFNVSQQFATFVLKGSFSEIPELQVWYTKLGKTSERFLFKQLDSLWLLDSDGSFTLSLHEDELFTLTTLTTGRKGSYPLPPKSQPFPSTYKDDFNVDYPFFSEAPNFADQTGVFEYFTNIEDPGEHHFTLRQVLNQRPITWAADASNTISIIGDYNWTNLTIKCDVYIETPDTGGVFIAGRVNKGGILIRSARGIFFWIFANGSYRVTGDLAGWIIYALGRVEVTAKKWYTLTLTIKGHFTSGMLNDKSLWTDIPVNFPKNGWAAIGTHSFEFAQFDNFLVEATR
Consider `CC(=O)Nc1nonc1-c1nnc(SCC(=O)Nc2cc(C)ccc2C)n1-c1ccccc1`, for which the “activation” value is inactive: -30.3%.
Turning to `O=C1c2ccccc2C(=O)c2c1ccc(O)c2O`, the “activation” value is inactive: -15.3%.
For `COc1cccc2cc(-c3nc4sc(C(=O)Nc5ccc(F)cc5F)c(C)c4c(=O)[nH]3)c(=O)oc12`, the “activation” value was inactive: 13.9%.
On to `Cc1ccc(C)c(N2CCN(c3ncnc4onc(C)c34)CC2)c1`, for which the “activation” value is inactive: -25.8%.
Consider `CCOC(=O)c1ccccc1NC(=O)N1CCN2CCCCC2C1` (configuration not stated), for which the “activation” value was inactive: -13.1%.
As to `COCc1cc(C)nc2sc3c(=O)n(-c4cc(C)ccc4C)nnc3c12`, the “activation” value is inactive: -5.69%.
For `Cc1ccc(NC(=O)C(=O)NCC(c2cccnc2)N2CCN(C)CC2)cc1C` (configuration not stated), the “activation” value was inactive: -21.7%.
As to `COc1ccc(NC(=O)c2oc3c(c2C)-c2nn(Cc4c(F)cccc4Cl)cc2CC3)c(OC)c1`, the “activation” value is inactive: -17.5%.
Take `Cc1ccc(OCC(=O)Nc2ccc(C(=O)OCc3cc(=O)n4nc(C5CC5)sc4n3)cc2)cc1`: the “activation” value was inactive: -13%.
As to `COc1ccc(CNc2nc3c(S(=O)(=O)c4ccccc4)nnn3c3ccc(Cl)cc23)cc1`, the “activation” value is inactive: -25.7%.
As for `CCOc1ccc(Nc2oc(/C=C/c3ccc(F)cc3)nc2C#N)cc1`, the “activation” value was inactive: -12.9%.
The result for `COc1ccc(C2C(C(=O)Nc3ccccc3)=C(C)Nc3nc(-c4ccccc4)nn32)cc1OC` (configuration not stated) reads inactive: -5.28%; that for `COc1ccc(OC)c(-c2nc(Nc3ccccc3C)sc2CC(=O)O)c1`, inactive: -29%; that for `Cc1cc(C)n(-c2nc3ccccc3nc2Nc2cccc(C(F)(F)F)c2)n1`, inactive: -13.8%.
Consider `CCOC(=O)c1ccccc1NC(=O)CSc1ccc(-c2sc(-c3ccccc3)nc2C)nn1`, for which the “activation” value is inactive: -5.04%.
With `O=C1CCSC2(C(=O)N(Cc3ccc(F)cc3)c3ccccc32)N1c1ccccc1` (configuration not stated), the “activation” value was inactive: -14.1%.
As for `CCc1ccc(NC(=O)c2cc3ccccn3n2)cc1`, the “activation” value was inactive: -10.7%.
`Cc1cc(C)c2c(CC(=O)Nc3nnc(C(C)C)s3)coc2c1`: the “activation” value was inactive: -10.5%.
In the case of `Fc1ccccc1CNCCCSc1nnnn1-c1ccccc1`, the “activation” value was inactive: -9.52%.
The result for `O=C(CSc1nc(=O)[nH]c2c1CCCC2)Nc1cc(C(F)(F)F)ccc1Cl` reads inactive: -5.55%; that for `CCOC(=O)c1cccc(NC(=O)c2cc3c(Cl)nc4ccc(C)cc4c3s2)c1`, inactive: -1.27%.
With `CCc1ccc(NS(=O)(=O)c2ccc3[nH]cc(C(=O)NC4CCCC4)c(=O)c3c2)cc1`, the “activation” value was inactive: 13.2%.
Take `COc1ccc(-n2cc(-c3ccccc3)c3c(SC(C)C(C)=O)ncnc32)cc1` (configuration not stated): the “activation” value was inactive: -2.92%.
For `CC(C)CCNC(=O)CN1C(=O)COc2ccc(S(=O)(=O)N3CCOCC3)cc21`, the “activation” value was inactive: -6.99%.
For `COc1ccc(NC(=O)C(=O)NCCc2ccccc2)cc1OC` the value was inactive: -8.73%; for `CC(C)c1ccc(NC(=O)C2CCCN(S(=O)(=O)c3ccc(Br)s3)C2)cc1` (configuration not stated), inactive: -41.8%.
`COc1cccc(C(=O)Nc2ccccc2C(=O)OCc2cc(=O)n3nc(C)sc3n2)c1`: the “activation” value is inactive: -5.75%.
For `CC1CCC(NC(=O)c2ccc3c(c2)N(Cc2cccc(F)c2)C(=O)c2ccccc2S3)CC1` (configuration not stated), the “activation” value was inactive: -2.01%.
Turning to `CCc1nnc(SCc2ccc(F)cc2Cl)c2cc3sccc3n12`, the “activation” value is inactive: -15.6%.
On to `Cc1ccc(C)c(NC(=O)C(C)n2c(=O)cc(C(F)(F)F)c3c(C)nn(C)c32)c1` (configuration not stated), for which the “activation” value was inactive: 7.47%.
Take `CCN1CCN(C(=O)c2ccc3c(c2)N(Cc2cccc(Cl)c2)C(=O)c2ccccc2S3(=O)=O)CC1`: the “activation” value is inactive: -4.91%.
As for `COc1ccccc1CNC(=O)CSc1ncc2c(n1)-c1ccccc1N(Cc1ccc(C)cc1)S2(=O)=O`, the “activation” value was inactive: -9.14%.
Regarding `COc1ccc(-c2noc(C3CC(=O)N(c4ccc(C)c(F)c4)C3)n2)c(OC)c1` (configuration not stated), the “activation” value was inactive: -20.7%.
For `CCc1ccc(CNC(=O)c2ccc3c(c2)nc2n3CCOC2)cc1`, the “activation” value was inactive: -1.07%.
Regarding `Fc1ccc(-c2cc(-c3nc(-c4cccc(Cl)c4)no3)[nH]n2)cc1`, the “activation” value was inactive: -24.9%.
With `COc1cc(OC)c(OC)cc1CN1CCc2nc(N3CCN(c4ncccn4)CC3)ncc2C1`, the “activation” value was inactive: -12.6%.
Consider `Cc1ccc(CNC(=O)c2cc3sccc3n2Cc2ccc(F)cc2)cc1`, for which the “activation” value is inactive: -13.1%.
On to `CCC(=O)N1CCc2cc(S(=O)(=O)CCC(=O)N3CCN(c4ccccc4F)CC3)ccc21`, for which the “activation” value was inactive: -4.07%.
With `CC(=O)c1ccc(NS(=O)(=O)c2ccc3[nH]c4c(c3c2)CCCCCC4)cc1`, the “activation” value was inactive: -15.3%.
For `CCC(CC)C(=O)N1CCc2cc(OC)c(OC)cc2C1COc1ccccc1OC` (configuration not stated) the value was inactive: -18.7%; for `CN1CCN(CCCN2c3ccccc3Sc3ccc(Cl)cc32)CC1`, inactive: -9.39%; for `Cc1ccc(C)c(Cn2nnc(C(=O)NCc3ccccc3)c2N)c1`, inactive: -12.4%.
With `CN1CCN(C(CNC(=O)C(=O)Nc2ccc(F)cc2)c2cccnc2)CC1` (configuration not stated), the “activation” value was inactive: -12.6%.
With `Cc1ccc(NC(=O)CN2C(=O)CCc3cc(S(=O)(=O)N4CCOCC4)ccc32)c(C)c1`, the “activation” value was inactive: -9.86%.
The result for `CCOc1ccc(CNC(=O)c2sc3nc(C)cc(C)c3c2-n2cccc2)cc1` reads inactive: -0.608%.
In the case of `Cc1cc2oc(C(=O)Nc3nc(-c4ccccc4)ns3)c(C)c2cc1Cl`, the “activation” value is inactive: -14%.
As to `COc1ccc(-c2nn(C)c3sc(C(=O)N4CCN(c5cc(Cl)ccc5C)CC4)cc23)cc1OC`, the “activation” value was inactive: -2.33%.
As to `O=C(c1ccc2c(c1)N(Cc1cccc(Cl)c1)C(=O)c1ccccc1S2(=O)=O)N1CCN(c2cccc(C(F)(F)F)c2)CC1`, the “activation” value is inactive: -16.9%.
Consider `CCOc1ccc(-c2nonc2NC(=O)COc2ccc(C)c(C)c2)cc1OCC`, for which the “activation” value is inactive: 8.26%.
As for `CCOc1ccc(NC(=O)CSc2nnc(NC(=O)Nc3ccccc3)s2)cc1`, the “activation” value was inactive: -0.146%.
Turning to `Cc1nc2cc(-c3cccc(F)c3)nn2c(C)c1CCC(=O)NC1CCCCC1`, the “activation” value is inactive: -23.6%.
As for `Cc1ccc(Cn2c(=O)n(Cc3ccc(Cl)cc3)c(=O)c3cccnc32)cc1`, the “activation” value is inactive: -16%.
Turning to `CCOc1ccc(-c2cnc(NCc3cccc(Cl)c3)n2C)cc1`, the “activation” value was inactive: -12.2%.
For the molecule `COc1ccc(CCNC(=O)Cn2c(=O)c3cccn3c3ccc(F)cc32)cc1OC`, the “activation” value was inactive: -17.4%.
For the molecule `COc1ccc(C(=O)CCC(=O)Nc2cccc(C(C)=O)c2)cc1`, the “activation” value was inactive: -17.3%.
Consider `Cc1ccccc1-n1nc(CO)c(C(=O)NCCc2ccccc2)n1`, for which the “activation” value was inactive: 0.481%.
For `COc1cccc(NC(=O)C(=O)NCC(c2cccnc2)N2CCN(c3ccccc3)CC2)c1` (configuration not stated), the “activation” value is inactive: -14.9%.
With `CCOC(=O)CSc1nc2ccc(NC(=O)COc3ccccc3)cc2s1`, the “activation” value is inactive: -7.11%.
Turning to `COc1ccc(OC)c(CNc2ncnc3onc(-c4ccc(Cl)cc4)c23)c1`, the “activation” value is inactive: -6.49%.
In the case of `Cc1cccc(CSc2cn(CC(=O)N3CCCCCC3)c3ccccc23)c1`, the “activation” value is inactive: -15%.
As to `CC1CCc2c(sc(NC(=O)c3ccccc3)c2C(=O)Nc2ccccc2)C1` (configuration not stated), the “activation” value was inactive: -10.4%.
With `CCCOc1ccc(-c2cccc(NS(=O)(=O)c3cc(OC)ccc3OC)c2)nn1`, the “activation” value is inactive: -10.8%.
For `O=C(NCc1ccc(Cl)cc1)c1cnc2sc(N3CCCCCC3)nn2c1=O`, the “activation” value was inactive: -8.91%.
For the molecule `CCCCN(C)CCNC(=O)C1CCN(c2nc3ccc(CC)cc3s2)CC1`, the “activation” value was inactive: -14.4%.
In the case of `COc1ccc(C(c2c(O)cc(C)n(Cc3ccco3)c2=O)N2CCN(c3ccccc3)CC2)cc1` (configuration not stated), the “activation” value was inactive: -0.432%.
As for `COc1ccc(Cl)cc1NC(=O)C1CCN(c2ncnc3c2nc2n3CCCCC2)CC1`, the “activation” value is inactive: -17.8%.
Regarding `CCN(CC)c1ccc(NC(=O)c2cnn3c(C(F)F)cc(-c4ccccc4)nc23)cc1`, the “activation” value is inactive: -27.9%.
The result for `O=C(CCC(=O)N1Cc2ccccc2Oc2ncccc21)NCc1ccccc1Cl` reads inactive: 2.72%; that for `CCN(CC)CC(=O)OCC(=O)[C@@]1(O)CC[C@H]2[C@@H]3CCC4=CC(=O)CC[C@]4(C)[C@H]3[C@@H](O)C[C@@]21C`, inactive: -14.9%; that for `COc1ccc(N2C(=O)CSC23C(=O)N(Cc2cccc(C(F)(F)F)c2)c2ccccc23)cc1` (configuration not stated), inactive: -15.8%.
As to `Cc1ccc(Nc2c3c(nc4nc(-c5cccs5)nn24)CCCC3)cc1F`, the “activation” value is inactive: -8.96%.
As to `CCOc1ccc2oc(=O)cc(CN3CCN(Cc4ccc(C)cc4)CC3)c2c1`, the “activation” value was inactive: -26.1%.
The result for `Cc1oc(-c2ccc(Cl)cc2)nc1CS(=O)CC(=O)NCCc1ccccc1` (configuration not stated) reads inactive: -6.4%.
Take `CCOC(=O)Cn1nc(C)c(NC(=O)COc2ccccc2)c1C`: the “activation” value is inactive: -10.8%.
As to `COc1ccccc1CNc1nc(-c2ccco2)nn1S(C)(=O)=O`, the “activation” value was inactive: 3.78%.
With `Cc1cccc(Cn2c(=O)n(CCCC(=O)NCc3ccccc3Cl)c(=O)c3ccccc32)c1`, the “activation” value was inactive: 5.21%.
For `COc1ccc(S(=O)(=O)NC(C)(C)C)cc1-c1nnc2c3ccccc3c(C)nn12` the value was inactive: -9.94%; for `Cc1ccc(S(=O)(=O)c2nc(-c3cccs3)oc2SCC(=O)Nc2cc(C)cc(C)c2)cc1`, inactive: -26.8%.
Regarding `COc1ccccc1OCC(=O)N(Cc1cccs1)C1CCS(=O)(=O)C1` (configuration not stated), the “activation” value was inactive: -10.7%.
On to `COc1ccc(N(Cc2cccs2)C(=O)COc2cccc(C)c2C)cc1`, for which the “activation” value is inactive: -9.74%.
In the case of `CSc1ccc(NC(=O)C2CCN(c3ncccn3)CC2)cc1`, the “activation” value is inactive: -17.2%.
The result for `CCN1CCN(c2ncc3c(n2)CCN(CC(C)C)C3)CC1` reads inactive: -8.74%; that for `COC(=O)CC1Oc2ccc(F)cc2-n2cc(-c3ccc(C)cc3)nc21` (configuration not stated), inactive: 15.5%.
For `COc1cc(NC(=O)CCn2c(=O)oc3ccccc32)cc(OC)c1OC` the value was inactive: -22.2%.
`COc1ccc(-n2cc(-c3ccccc3)nc2SCC(=O)Nc2ccccc2C)cc1`: the “activation” value is inactive: -10.5%.
As to `CCOC(=O)N1CCc2c(sc(NCc3cccc(F)c3)c2C(=O)Nc2ccc(OC)cc2)C1`, the “activation” value is inactive: -24.1%.
For the molecule `Cc1ccc(CNc2nc3ccc(Cl)cc3n3nnnc23)cc1`, the “activation” value is inactive: 11%.
Regarding `COc1cc(OC)c(NS(=O)(=O)c2c(C(=O)N3CCCCCC3)c(C)n(C)c2C)cc1Cl`, the “activation” value was inactive: -13.6%.
Consider `Cc1cc(-c2ccc(C)c(S(=O)(=O)Nc3ccccn3)c2)on1`, for which the “activation” value was inactive: -9.34%.
For `COc1ccc(Br)cc1CNC(=O)c1ccc2nc(C(C)C)oc2c1`, the “activation” value was inactive: -11.3%.
`CCOc1ccc(-n2ccnc2SCC(=O)Nc2cccc3ccccc23)cc1`: the “activation” value was inactive: -6.24%.
For `Cc1cccc(CC(=O)N2CC(=O)Nc3ccc(C)cc3C2c2ccc(F)cc2)c1` (configuration not stated), the “activation” value was inactive: -11.8%.
As for `CCCN(CCC)C(=O)CSc1c2c(nc3ccc(Cl)cc13)CCCC2`, the “activation” value is inactive: -8.73%.
Consider `Cc1ccc(NC(=O)CN2C(=O)C(c3ccc(C(C)(C)C)cc3)=NC2(C)C)cc1`, for which the “activation” value is inactive: -25.2%.
Regarding `CC(=O)[C@]1(O)Cc2c(O)c3c(c(O)c2[C@@H](O[C@H]2C[C@H](N)[C@H](O)[C@H](C)O2)C1)C(=O)c1ccccc1C3=O`, the “activation” value was inactive: -11.3%.
In the case of `CN1C(CSCC(F)(F)F)Nc2cc(Cl)c(S(N)(=O)=O)cc2S1(=O)=O` (configuration not stated), the “activation” value was inactive: -10.9%.
As to `O=[N+]([O-])c1cc(-c2nc(-c3ccccc3)no2)ccc1NCc1cccnc1`, the “activation” value is inactive: -35.7%.
